PubChem BioAssay AID1347428 (National Center for Advancing Translational Sciences (NCATS), 2020)
About 290 (0.32%) of roughly 91,000 compounds were called active. Inconclusive means that the source gave no clear call. Such entries were picked first, then a sample of the others. The call rests on the fitted dose curve; in most records, active means well fitted inhibition curve with a large enough effect; inconclusive means small, poorly fitted or top-dose-only effect; inactive means no such curve, though single readings can be large or run the other way. Potencies beside an inconclusive call are fits to weak or partial responses and may not hold up.

The compounds below were run against Single-stranded DNA cytosine deaminase (Homo sapiens) (UniProt Q9GZX7) (assay: Primary qHTS assay for inhibitors of Activation Induced Cytidine Deaminase (AID): AID signal). Details: AID deamination FRET fluorescence, UDG-coupled, 4 h; activity change, negative = inhibition: at 115 µM (top of the series).
Sequence of UniProt Q9GZX7 (Q9GZX7 whole entry, looked up): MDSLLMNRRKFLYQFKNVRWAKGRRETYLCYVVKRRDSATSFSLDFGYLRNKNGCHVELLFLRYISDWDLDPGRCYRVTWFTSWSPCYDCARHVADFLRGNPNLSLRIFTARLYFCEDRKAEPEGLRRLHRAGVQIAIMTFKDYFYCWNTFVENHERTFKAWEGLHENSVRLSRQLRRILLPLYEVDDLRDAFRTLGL
Further: nearly all actives have a fitted effect of over 25% in size.
On the % scale 0 is the no-effect control and ±100 the full control effect; potency means the concentration at half of the fitted maximal effect; tags describe the fitted curve by direction and shape.

Compound	Potency	activity change, negative = inhibition
CC(C)(C)OC(=O)N1CCC(c2c(C(=O)NCc3ccccc3)cnn2-c2cccc(F)c2)CC1	inconclusive: 50.1 µM [inhibitor, partial curve, poor fit]	
Cc1ccc(-c2nc(CCNC(=O)c3ccc(C)c(C)c3)cs2)cc1	inconclusive: 50.1 µM [inhibitor, partial curve, poor fit]	
COc1ccc(-c2noc(CN(C)S(=O)(=O)c3c(C)cc(C)cc3C)n2)cc1OC	inconclusive: 89.1 µM [inhibitor, partial curve, poor fit]	
COc1ccc(CCNC(=O)CCc2c(C)c3cc4c(C)c(C)oc4cc3oc2=O)cc1OC	inconclusive: 79.4 µM [inhibitor, partial curve, poor fit]	
CSc1cccc(NC(=O)c2cnn(-c3ccc(F)cc3)c2-n2cccc2)c1	inconclusive: 10 µM [inhibitor, full curve]	
Cc1ccc(C)c(SCC(=O)Cc2ccccc2F)c1		inactive: -7.26%
Cc1ccc(NC(=O)C2=C(c3ccccc3)NC(=S)NC2c2ccc(Br)cc2)cc1 (centres undefined)		inactive: -8.18%
Cc1cccc(-c2nc(CN3CCCC(C(=O)N4CCN(c5cc(Cl)ccc5C)CC4)C3)c(C)o2)c1 (centres undefined)	inconclusive: 50.1 µM [inhibitor, partial curve]	
COc1ccc(NC(=O)c2ccc(N3CCCN(Cc4ccccc4C)C3=O)cc2)cc1	inconclusive: 28.2 µM [inhibitor, partial curve, poor fit]	
CCc1nc2ccc(C(=O)N3CCN(c4cc(Cl)ccc4C)CC3)cc2nc1CC	inconclusive: 39.8 µM [inhibitor, single point]	
CCN(c1cccc(C)c1)S(=O)(=O)c1cc(Br)cc2c1N(C(C)=O)C(C)C2 (centres undefined)	inconclusive: 15.8 µM [inhibitor, full curve, poor fit]	
Cn1ncc2c(Nc3cc(C(F)(F)F)ccc3Cl)ncnc21	inconclusive: 79.4 µM [inhibitor, partial curve, poor fit]	
COc1ccc(NC(=O)c2c(C)oc3ccc(O)c(CN4CCC(C)CC4)c23)cc1Cl		inactive: -22.4%
COc1ccc(CCNC(=O)c2ccc3c(c2)N(Cc2ccccc2)C(=O)c2ccccc2S3=O)cc1OC (centres undefined)	inconclusive: 11.2 µM [inhibitor, full curve, poor fit]	
O=C(CN1C(=O)C2(SCC(=O)N2c2cccc(Cl)c2)c2ccccc21)NCCc1ccccc1 (centres undefined)	inconclusive: 56.2 µM [inhibitor, partial curve, poor fit]	
Cc1c(Cl)cccc1-c1ccc(CNCCSc2nnnn2-c2ccccc2)o1	inconclusive: 28.2 µM [inhibitor, full curve, poor fit]	
Cc1ccc(Nc2c(-c3c[nH]c4ccccc34)nc3ccccn23)cc1	inconclusive: 35.5 µM [inhibitor, full curve, poor fit]	
COc1cccc(C2=C(C(C)=O)Sc3nnc(C)n3N2C(C)=O)c1	inconclusive: 100 µM [inhibitor, single point]	
Fc1ccc(C(c2nnc(-c3ccccc3)o2)N2CCN(c3cccc(Cl)c3)CC2)cc1 (centres undefined)	inconclusive: 28.2 µM [inhibitor, partial curve, poor fit]	
COc1ccc(Cc2nccc3cc(OC)c(OC)cc23)cc1OC		inactive: 74.9%

Compound	Potency	activity change, negative = inhibition
CCOc1ccc(S(=O)(=O)N(CC(=O)NCCc2ccc(OC)c(OC)c2)c2ccccc2)cc1	inconclusive: 100 µM [inhibitor, single point]	
COc1ccc(Nc2nc(-c3ccc(CNC(C)=O)cc3)cs2)cc1		inactive: -5.87%
O=C(NCc1ncc(-c2ccccc2)o1)c1cccc(F)c1		inactive: -4.11%
COc1ccc(Cl)cc1NC(=O)c1ccc2c(c1)CCCN2S(C)(=O)=O	inconclusive: 7.94 µM [inhibitor, partial curve, poor fit]	
Cc1ccc(-c2csc(Nc3ccccc3)n2)c(C)c1	inconclusive: 39.8 µM [inhibitor, partial curve, poor fit]	
CCc1ccc(S(=O)(=O)c2cn(CC)c3cc(N4CCOCC4)c(F)cc3c2=O)cc1	inconclusive: 31.6 µM [inhibitor, partial curve, poor fit]	
COc1cc2c(cc1OC)C(c1ccccc1)N(CC(=O)Nc1ccc(C(N)=O)cc1)CC2 (centres undefined)		inactive: 1.16%
O=C(O)c1cc(-c2ccc(C(F)(F)F)cc2)nc2n[nH]c(-c3ccccc3)c12	inconclusive: 17.8 µM [inhibitor, partial curve, poor fit]	
CCOC(=O)c1c(C)n(-c2ccccc2)c2ccc(OC(=O)c3ccccc3NC(=O)C(C)(C)C)cc12	inconclusive: 50.1 µM [inhibitor, partial curve, poor fit]	
Cc1ccc(NC(=O)c2c(C)nc3sc(C(=O)Nc4ccc(F)cc4)c(N)c3c2-c2ccccc2Cl)c(C)c1		inactive: 0.97%
COc1ccc(F)cc1C(=O)/C=C/c1ccc(SC)cc1	inconclusive: 20 µM [inhibitor, partial curve, poor fit]	
Cc1ccc(N(Cc2cccs2)C(=O)COc2cccc(C)c2)cc1	inconclusive: 44.7 µM [inhibitor, partial curve, poor fit]	
COc1ccccc1N1CCN(C(=O)Cn2ncc3c(=O)oc4ccc(C)cc4c32)CC1	inconclusive: 56.2 µM [inhibitor, partial curve, poor fit]	
Cc1cccc(N2CCN(C(=O)CCSCc3ccccc3F)CC2)c1C	inconclusive: 15.8 µM [inhibitor, full curve, poor fit]	
CCOc1ccc(CCNC(=O)CSc2cc(=O)n(C)c3ccc(Cl)cc23)cc1OCC	inconclusive: 8.91 µM [inhibitor, full curve, poor fit]	
COc1cc(C2CC(=O)N3CN(c4ccc(F)cc4)CSC3=C2C#N)cc(Br)c1O (centres undefined)	inconclusive: 89.1 µM [inhibitor, single point]	
O=C(CCc1ncc(-c2ccc(Cl)cc2)o1)NCC1CCCO1 (centres undefined)		inactive: 3.19%
COc1ccc(OC)c(-c2noc(N3CCN(c4cccc(C)c4C)CC3)n2)c1	inconclusive: 44.7 µM [inhibitor, full curve, poor fit]	
COc1ccc(CCC(=O)NCCc2csc(-c3cccc(C)c3)n2)cc1	inconclusive: 17.8 µM [inhibitor, full curve]	
Cc1ccc(NC(=O)c2sc3ncnc(N(C)C4CCCCC4)c3c2C)cc1	inconclusive: 12.6 µM [inhibitor, full curve, poor fit]	

Compound	Potency	activity change, negative = inhibition
CCn1c(N2CCC(Cc3ccccc3)CC2)nc2c1c(=O)n(C)c(=O)n2C	inconclusive: 56.2 µM [inhibitor, partial curve, poor fit]	
CC(=O)N1CCc2cc(CNC(=O)Nc3ccc(Br)c(C)c3)ccc21	inconclusive: 39.8 µM [inhibitor, single point]	
CCc1ccccc1N(C)S(=O)(=O)c1ccc2c(c1)C(C)(C)C(=O)N2C	inconclusive: 70.8 µM [inhibitor, single point]	
Cc1c(C(=O)N(C)C)sc2c1c(=O)n(-c1ccc(F)cc1)c(=O)n2Cc1ccccc1C#N		inactive: 346%
CCC(=O)Nc1ccccc1-c1nc2ccccc2n(C(CC)C(=O)Nc2cccc(Cl)c2)c1=O (centres undefined)	inconclusive: 10 µM [inhibitor, full curve, poor fit]	
CCOc1ccc(-c2cc3nc(C4CCN(C(=O)OC(C)(C)C)CC4)c(C(=O)Nc4c(C)cccc4C)cn3n2)cc1	inconclusive: 20 µM [inhibitor, partial curve, poor fit]	
O=S(=O)(c1ccccc1)c1nc(-c2cccc(Cl)c2)oc1N1CCOCC1	inconclusive: 44.7 µM [inhibitor, partial curve, poor fit]	
CCn1cc2nc(SCc3ccc(F)cc3)n(CCc3ccccc3)c(=O)c2n1	active: 35.5 µM	
CC(C)(C)c1ccc(C(=O)N(Cc2ccc(F)cc2)Cc2ccco2)cc1	inconclusive: 44.7 µM [inhibitor, partial curve, poor fit]	
O=S(=O)(c1ccc(Br)cc1)c1nnn2c1nc(N1CCOCC1)c1sccc12	inconclusive: 15.8 µM [inhibitor, full curve, poor fit]	
Cc1c(C(=O)NCc2cccc(Cl)c2)sc2nc3n(c(=O)c12)CCC3	inconclusive: 79.4 µM [inhibitor, partial curve, poor fit]	
CCN1CCc2nc3sc(C(=O)Nc4cccc(Cl)c4C)c(N)c3cc2C1		inactive: 180%
COCCCNC(=O)c1oc2c(c1C)-c1nn(Cc3ccccc3Cl)cc1CC2	inconclusive: 79.4 µM [inhibitor, partial curve, poor fit]	
CCC1=Nc2cc(C(=O)NCCCOC)ccc2Sc2ccc(Br)cc21	inconclusive: 79.4 µM [inhibitor, partial curve]	
O=C(O)c1ccc(-c2ccc(CNCc3ccccc3)o2)cc1		inactive: 2.95%
CCc1ccc(CN(Cc2ccco2)c2cnc(S(C)(=O)=O)nc2C(=O)Nc2cccc(C)c2)cc1	inconclusive: 20 µM [inhibitor, full curve, poor fit]	
CCOC(=O)COc1ccc([N+](=O)[O-])cc1-c1ccnc2cc(-c3ccc(Cl)cc3)nn12		inconclusive: -34.7% [inhibitor]
COc1ccccc1NC(=O)C(=O)NCC(c1ccc2c(c1)OCO2)N1CCN(C)CC1 (centres undefined)	inconclusive: 25.1 µM [inhibitor, partial curve, poor fit]	
O=C(N[C@@H](Cc1ccccc1)C(=O)CCl)OCc1ccccc1	inconclusive: 56.2 µM [inhibitor, partial curve, poor fit]	
